From PubChem BioAssay AID330 (DTP/NCI, 2004)
Toxic doses and inconclusive results are not listed. Certain results were filed several times, with different values. This is not the full list of results. There may be further records. Values given together differ for a reason that is not stated; they may come from other doses, times, organisms or constructs than stated.

Tested on: P388 leukemia ip, CD2F1 mice, survival T/C
Test: NCI In Vivo Anticancer Drug Screen. Data for tumor model P388 Leukemia (intraperitoneal) in CD2F1 (CDF1) mice
Conditions: endpoint: median survival time, higher = longer survival

CCCCC(=O)OCC(=O)[C@]1(O)Cc2c(O)c3c(c(O)c2[C@@H](OC2CC(NC(=O)C(F)(F)F)C(O)C(C)O2)C1)C(=O)c1c(OC)cccc1C3=O (some centres not stated)
T/C (dose: 150.0 mg/kg/injection, schedule: Q04DX003 (ip), vehicle: clinical formulation): 90 % of control, 98 % of control, 155 % of control

COc1cccc2c1C(CO)N1C(C#N)C3CC(C(=O)O)C(C1C2)N3C (configuration not stated)
T/C (dose: 25.0 mg/kg/injection, schedule: Q01DX005 (ip), vehicle: suspension in saline): 96 % of control and 180 % of control
